The whole screen tested about 310,000 compounds, of which about 18,000 (5.8%) were called active. Inconclusive results, whose numbers are uncertain, are shown with a selection of clear calls. The call rests on the fitted dose curve; in most records, active means well fitted inhibition curve with a large enough effect; inconclusive means small, poorly fitted or top-dose-only effect, or another doubt; inactive means no such curve, though single readings can be large or run the other way. No potency is given beside an inconclusive call; the fits are too rough.
test: Primary qHTS for delayed death inhibitors of the malarial parasite plastid, 48 hour incubation; conditions: P. falciparum luciferase growth in erythrocytes; series mostly up to 28.7 µM; activity change, negative = inhibition: at the top concentration
Procedure, shortened: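 Luciferase-expressing P. falciparum in infected erythrocytes (2% hematocrit, 0.1% parasitemia final) in RPMI 1640/0.5% Albumax were exposed to compound for 48 hours at 37 C, 5% CO2; growth read as luminescence.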
On the % scale 0 is the no-effect control and ±100 the full control effect; potency means the concentration at half of the fitted maximal effect; tags describe the fitted curve by direction and shape.

Question: For `CN(C)S(=O)(=O)N1CCN(S(=O)(=O)c2ccc(F)cc2)CC1`, which “activity change, negative = inhibition” value is on record?
Answer: inactive: 7.28%

Question: With `Cc1ccccc1OCCC(=O)N1CCN(S(=O)(=O)c2ccccc2F)CC1` as the molecule, how does the Potency read?
Answer: inconclusive [inhibitor, partial curve, poor fit]

Question: Which Potency does the source give for `CCC(C)N(C(=O)COC(=O)C1CCN(S(=O)(=O)c2ccc(C)c(C)c2)CC1)C1CCS(=O)(=O)C1` (centres undefined) here?
Answer: inconclusive [inhibitor, single point]

Question: For `Clc1ccc(Cn2ncc3c(NCc4cccnc4)ncnc32)cc1`, which Potency is on record?
Answer: inconclusive [inhibitor, partial curve]

Question: For `Cc1cc(C)nc(SCc2nnc(SCC(=O)Nc3ncc(C)s3)n2Cc2ccco2)n1`, which Potency is on record?
Answer: inconclusive [inhibitor, single point]

Question: With `CNC(=S)NNC(=O)c1noc(C)c1C(=O)N1CCN(C(c2ccccc2)c2ccccc2)CC1` as the molecule, how does the Potency read?
Answer: inconclusive [inhibitor, partial curve, poor fit]

Question: Which Potency does the source give for `Cc1ccc(-n2c(C)c([N+](=O)[O-])c3ccc(O)cc32)cc1` here?
Answer: inconclusive [inhibitor, single point]

Question: Which “activity change, negative = inhibition” value does the source give for `Cc1ccc(/C=C/C(=O)c2ccc(C)cc2)cc1` here?
Answer: inactive: 75.6%

Question: Which “activity change, negative = inhibition” value does the source give for `COc1ccc(NC(=O)CN(C)S(=O)(=O)c2ccc(Br)s2)cc1OC` here?
Answer: inactive: 5.05%

Question: For `CC(C)(C)C(=O)Nc1ccccc1C(=O)Nc1ccncc1`, which Potency is on record?
Answer: inconclusive [inhibitor, partial curve]

Question: Which Potency does the source give for `C=CCSc1nnc(NC(=O)C2CC(=O)N(Cc3ccc(C)cc3)C2)s1` (centres undefined) here?
Answer: inconclusive [inhibitor, single point]

Question: For `O=C(COC(=O)C1CCN(S(=O)(=O)c2cccs2)CC1)NCc1ccc(F)cc1`, which “activity change, negative = inhibition” value is on record?
Answer: inactive: 26.6%

Question: With `N#Cc1ccc2c(c1)C[C@]1(CCCCN3C(=O)c4ccccc4C3=O)Oc3c(c(=O)oc4ccc(F)cc34)C2O1` as the molecule, how does the Potency read?
Answer: active: 1.9 µM

Question: Which Potency does the source give for `Cc1nc(Sc2ccc(Cl)cc2)c(C#N)c(C)c1[N+](=O)[O-]` here?
Answer: inconclusive [inhibitor, partial curve]

Question: For `Cc1cc(Br)cc2c(C(=O)NCC3CCCO3)cc(-c3ccccc3)nc12` (centres undefined), which “activity change, negative = inhibition” value is on record?
Answer: inactive: -3.49%

Question: For `O=C(Nc1nnc(C2CC2)o1)c1ccc(S(=O)(=O)N2CCCCC2)cc1`, which Potency is on record?
Answer: inconclusive [inhibitor, single point]

Question: With `CC(C)C(c1nnnn1Cc1ccc(F)cc1)N1CCSCC1` (centres undefined) as the molecule, how does the Potency read?
Answer: inconclusive [inhibitor, single point]

Question: For `Cc1[nH][nH]c(=O)c1C(c1c(C)[nH][nH]c1=O)c1cn(C)c2ccccc12`, which Potency is on record?
Answer: active: 10.4 µM

Question: Which Potency does the source give for `Cc1ccc(Cn2nnnc2CN2CCC(O)(c3ccc(F)cc3)CC2)cc1` here?
Answer: active: 13.1 µM

Question: With `N#Cc1c(N2CCN(C(=O)c3ccccc3Cl)CC2)nc(-c2ccccc2)c2c1CCCC2` as the molecule, how does the Potency read?
Answer: inconclusive [inhibitor, partial curve, poor fit]

Question: For `COc1ccc(-c2nc3ccccc3n2OCC(=O)O)cc1`, which “activity change, negative = inhibition” value is on record?
Answer: inactive: 141%

Question: With `COCCNC(=O)CNS(=O)(=O)c1ccc2nc(C)sc2c1` as the molecule, how does the Potency read?
Answer: inconclusive [inhibitor, single point]

Question: For `CC1CCC(NC(=O)C(Cc2ccccc2)n2cccc2)CC1` (centres undefined), which Potency is on record?
Answer: inconclusive [inhibitor, single point]

Question: Which Potency does the source give for `CCCOc1ccc(N2C(=O)CC(NCCNc3ccc(S(=O)(=O)CC)cc3)C2=O)cc1` (centres undefined) here?
Answer: inconclusive [inhibitor, single point]

Question: With `O=C(NCCNC(=O)c1ccccc1F)c1ccco1` as the molecule, how does the “activity change, negative = inhibition” value read?
Answer: inactive: 53.3%

Question: With `COc1cc(/C=N\NC(=O)CC(=O)NCCc2ccccc2)ccc1O` as the molecule, how does the “activity change, negative = inhibition” value read?
Answer: inactive: -0.938%

Question: Which “activity change, negative = inhibition” value does the source give for `Cc1ccccc1OCC(O)Cn1nnc2ccccc21` (centres undefined) here?
Answer: inactive: 49.6%

Question: Which Potency does the source give for `COc1ccc(C)cc1Nc1n[n+](C)c(-c2ccc(O)cc2O)s1` here?
Answer: inconclusive [inhibitor, full curve, poor fit]

Question: For `C/C=C(\C)C(=O)N1CC2(CC(c3cccc(NC(=O)COc4ccc(Cl)cc4)c3)=NO2)C[C@@H]1C(N)=O` (some centres undefined), which Potency is on record?
Answer: active: 11.7 µM

Question: For `CC[C@]1(O)C[C@@H]2CN(CCc3c([nH]c4ccccc34)[C@@](C(=O)OC)(c3cc4c(cc3OC)N(C)[C@H]3[C@@](O)(C(=O)OC)[C@H](OC(C)=O)[C@]5(CC)C=CCN6CC[C@]43[C@@H]65)C2)C1`, which Potency is on record?
Answer: active: 0.208 µM

Question: For `Cc1ccc(-c2nnc(NCc3nc4ccccc4[nH]3)c3ccccc23)cc1S(=O)(=O)N1CCCCC1`, which Potency is on record?
Answer: inconclusive [inhibitor, single point]

Question: Which Potency does the source give for `CC(=O)c1cccc(Nc2cc(C)nc3ccc(C)cc23)c1` here?
Answer: active: 4.15 µM

Question: For `COc1cccc(CC(=O)OCC(=O)NC2(C#N)CCCCC2)c1`, which Potency is on record?
Answer: inconclusive [inhibitor, single point]

Question: For `CC1=C(C(=O)Nc2ccc(Cl)cc2)C(c2cccs2)n2nnnc2N1` (centres undefined), which Potency is on record?
Answer: inconclusive [inhibitor, partial curve]

Question: With `CCOC(=O)c1c(NC(=O)CSc2nnc(N)s2)sc(C)c1-c1ccc(C)cc1` as the molecule, how does the Potency read?
Answer: inconclusive [inhibitor, single point]

Question: Which “activity change, negative = inhibition” value does the source give for `CNC(=S)Nc1cccc(C(=O)OC)c1` here?
Answer: inactive: 16.7%

Question: With `O=C(Cc1cccs1)N1CCN(c2cccc(Cl)c2)CC1` as the molecule, how does the “activity change, negative = inhibition” value read?
Answer: inactive: 16.1%

Question: Which Potency does the source give for `CCC(C#N)(CC)P(=S)(c1ccccc1)c1ccccc1` here?
Answer: inconclusive [inhibitor, partial curve]

Question: Which Potency does the source give for `CN1CCc2c(sc(NC(=O)c3ccc(S(=O)(=O)N4CCc5ccccc54)cc3)c2C(N)=O)C1` here?
Answer: inconclusive [inhibitor, partial curve]

Question: For `CN(C)S(=O)(=O)N1CCC(Oc2cccc(C(=O)N3CCCCCCC3)c2)CC1`, which Potency is on record?
Answer: inconclusive [inhibitor, partial curve]

Question: For `Cc1ccc(Cl)cc1N1CCN(C(=O)c2noc(C)c2[N+](=O)[O-])CC1`, which Potency is on record?
Answer: inconclusive [inhibitor, single point]

Question: For `C=C(C)C1CC=C(C)CC1` (centres undefined), which “activity change, negative = inhibition” value is on record?
Answer: inactive: 4.94%

Question: Which Potency does the source give for `COC(=O)c1cccc(C23CC4(C2)[C@H](CN(C)[C@@H]4c2ccccc2)C3c2ccccc2)c1` (some centres undefined) here?
Answer: active: 11.7 µM

Question: With `COC(=O)c1ccccc1-c1ccc(/C=N/Nc2nc(N3CCCC3)nc(N3CCCC3)n2)o1` as the molecule, how does the Potency read?
Answer: inconclusive [inhibitor, partial curve]
